Test results from PubChem BioAssay AID1347417 (National Center for Advancing Translational Sciences (NCATS), 2020).
Hit rate of the full screen: of about 120,000 compounds, about 5,300 (4.4%) were called active. Inconclusive results, whose numbers are uncertain, are shown with a selection of clear calls. Calls follow the shape of the dose curve; as a rule, active = well fitted inhibition curve with a large enough effect; inconclusive = small, poorly fitted or top-dose-only effect; inactive = no such curve, though single readings can be large or run the other way. Where the call is inconclusive, the potency comes from a doubtful curve fit.

Assay: qHTS Primary assay for Inhibitors of Plasmodium falciparum Dd2 growth in vitro; also: nearly all actives have a fitted effect of over 65% in size;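 as to activity, negative = inhibition: plate controls were DMSO vehicle for no effect and reference drug for full effect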
Conditions: P. falciparum Dd2 growth, SYBR Green, 72 h; activity, negative = inhibition: at 28.9 µM (top of the series) unless noted; series mostly up to 28.9 µM
Outline: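 Infected erythrocytes (Dd2, 0.3% parasitemia, 2.5% hematocrit final) are added to compound in RPMI-1640/Albumax II medium, grown 72 h at 37C in low oxygen, then lysed with saponin/Triton-X containing SYBR Green and read by fluorescence.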
Potency is read from the fitted curve at half-maximal effect; tags tell the direction and shape of the fitted curve.

**Q.** With `Cc1ccc(C(=O)N2CCC3(CCC(=O)N(CC4CC4)CC3)CC2)cc1F` as the compound, how does the Potency read?
**A.** inconclusive: 11.2 µM [inhibitor, single point]

**Q.** For `CCOC(=O)c1ccc(NC(=O)c2sc3nc4c(cc3c2N)N2CCC4CC2)cc1`, which Potency is on record?
**A.** inconclusive: 11.2 µM [inhibitor, single point]

**Q.** For `COc1ccc(-c2noc(CC3CCN(C(=O)c4ccccc4OC)CC3)n2)cc1`, which Potency is on record?
**A.** inconclusive: 3.98 µM [inhibitor, single point]

**Q.** With `O=C1N(C2CCN(S(=O)(=O)c3ccccc3)CC2)C(c2ccncc2)C12CCCCC2` (stereo not given) as the compound, how does the Potency read?
**A.** inconclusive: 10 µM [inhibitor, partial curve, poor fit]

**Q.** With `O=C(c1cccnc1OC1CCN(C(=O)C2CC2)C1)N1CCCCC1` (stereo not given) as the compound, how does the Potency read?
**A.** inconclusive: 7.08 µM [inhibitor, single point]

**Q.** For `Cc1ccc(S(=O)(=O)N2CC(C(=O)NCc3ccncc3)C3(CCOCC3)C2)c(C)c1` (stereo not given), which Potency is on record?
**A.** inconclusive: 11.2 µM [inhibitor, single point]

**Q.** Which “activity, negative = inhibition” value does the source give for `Cc1nc2c(C(=O)NCCc3ccccc3)c[nH]n2c(=O)c1Cc1ccc(F)cc1Cl` here?
**A.** inactive: 17.6%

**Q.** For `COc1ccc2[nH]cc(CCNC(=O)c3cnn(-c4ccccc4Cl)c3C3CCN(C(=O)OC(C)(C)C)CC3)c2c1`, which Potency is on record?
**A.** active: 5.62 µM

**Q.** With `Cc1nc(C)c(CN2CCOC[C@H](Oc3ccc(S(C)(=O)=O)cc3)C2)s1` as the compound, how does the “activity, negative = inhibition” value read?
**A.** inactive: 8.6% [at 44.1 µM]

**Q.** Which Potency does the source give for `CC(C)c1noc(-c2cn(C3CCN(C(=O)c4ccc5[nH]ccc5c4)CC3)nn2)n1` here?
**A.** inconclusive: 11.2 µM [inhibitor, partial curve, poor fit]

**Q.** With `CCOC(=O)N1CCC(N2CCN(c3cc(C(C)C)nc(C)n3)CC2)CC1` as the compound, how does the “activity, negative = inhibition” value read?
**A.** inactive: -26.4%

**Q.** For `CC(C)CN1CC(CNC(=O)c2ccc(Oc3ccccc3)cc2)Oc2ccnc(-c3ccc(OCC(=O)O)cc3)c2C1=O` (stereo not given), which Potency is on record?
**A.** inconclusive: 3.16 µM [inhibitor, partial curve, poor fit]

**Q.** With `CCCNC(=O)N1CCN2C(=O)c3cc(-c4cccc(C(F)(F)F)c4)ccc3NC(=O)[C@@H]2C1` as the compound, how does the Potency read?
**A.** inconclusive: 17.8 µM [inhibitor, single point]

**Q.** With `CCOC(=O)c1ccc(NC(=O)Cn2c(N3CCc4ccccc4C3)nc(C)cc2=O)cc1` as the compound, how does the “activity, negative = inhibition” value read?
**A.** inactive: -26.3%

**Q.** For `CCc1nncn1C1CCN(S(=O)(=O)c2ccc(OC)c(Cl)c2)CC1`, which Potency is on record?
**A.** inconclusive: 2.24 µM [inhibitor, single point]

**Q.** Which Potency does the source give for `Cc1ccc(CN2C(=O)C(O)(CC(=O)c3ccc(C)cc3)c3ccccc32)cc1` (stereo not given) here?
**A.** inconclusive: 12.6 µM [inhibitor, single point]

**Q.** For `CC(C(=O)N1CCN(c2cc(-c3ccc(Cl)cc3)[nH]n2)CC1)c1ccccc1` (stereo not given), which Potency is on record?
**A.** inconclusive: 2.51 µM [inhibitor, partial curve, poor fit]

**Q.** Which Potency does the source give for `COc1ccc(C(=O)c2cnc3ccc(C)cc3c2S(=O)(=O)c2ccccc2)cc1` here?
**A.** active: 11.2 µM

**Q.** For `COc1ccc(CNC(=O)N2CCCCC2c2noc(COc3ccc(C)cc3)n2)cc1` (stereo not given), which Potency is on record?
**A.** inconclusive: 17.8 µM [inhibitor, single point]

**Q.** For `O=C(CN1C(=O)C2(SCC(=O)N2c2ccccc2)c2ccccc21)Nc1ccccc1C(F)(F)F` (stereo not given), which Potency is on record?
**A.** inconclusive: 11.2 µM [inhibitor, single point]

**Q.** Which Potency does the source give for `CCNC(=O)C1CCN(c2nc3ccccc3nc2C(F)(F)F)CC1` here?
**A.** inconclusive: 14.1 µM [inhibitor, single point]

**Q.** For `O=C(CSc1nc2c([nH]c3ccccc32)c(=O)n1-c1ccccc1)NCc1ccc(F)cc1`, which Potency is on record?
**A.** inconclusive: 8.91 µM [inhibitor, single point]

**Q.** For `COc1ccc2[nH]cc(CCN=C(NC(=O)c3cccc(Cl)c3)Nc3nc(C)cc(C)n3)c2c1`, which Potency is on record?
**A.** active: 8.91 µM

**Q.** For `CCOc1ccccc1CN1C[C@@H](CO)[C@H](NC(=O)c2cccnc2)C1`, which Potency is on record?
**A.** inconclusive: 11.2 µM [inhibitor, single point]

**Q.** For `CC(C)n1cc2cc(C(=O)NC3CCCCCC3)sc2c1`, which “outcome” value is on record?
**A.** inactive

**Q.** Which Potency does the source give for `Cc1ccc(OCc2cc(C(=O)NC(Cc3ccccc3)c3ccccc3)no2)cn1` (stereo not given) here?
**A.** inconclusive: 11.2 µM [inhibitor, single point]

**Q.** For `COC(=O)C1=C(C)N=C2SC=C(CC(=O)NCc3ccccc3)N2C1c1cccc(OC)c1` (stereo not given), which Potency is on record?
**A.** inconclusive: 0.891 µM [inhibitor, partial curve, poor fit]

**Q.** With `COCCS(=O)(=O)c1ncc(CN(C)C(C)c2ccon2)n1Cc1ccccc1` (stereo not given) as the compound, how does the “activity, negative = inhibition” value read?
**A.** inactive: -4%

**Q.** For `Clc1ccc(NCCN2CCCC2)cc1`, which Potency is on record?
**A.** inconclusive: 7.94 µM [inhibitor, partial curve, poor fit]

**Q.** For `Cc1cccnc1CN1CCN(C(=O)C2CC3(CCNCC3)CN2C)CC1` (stereo not given), which “activity, negative = inhibition” value is on record?
**A.** inactive: 9.77%

**Q.** For `CCn1cc(S(=O)(=O)N2CCCC(Cc3noc(-c4cccnc4)n3)C2)cn1` (stereo not given), which “activity, negative = inhibition” value is on record?
**A.** inactive: 20%

**Q.** With `O=C(CSc1nc2c([nH]c3ccccc32)c(=O)n1-c1ccc(F)cc1)NCC1CCCO1` (stereo not given) as the compound, how does the Potency read?
**A.** inconclusive: 14.1 µM [inhibitor, partial curve]

**Q.** With `Cc1nc2ncccn2c1C(=O)N1CCC(c2nccn2CC(N)=O)CC1` as the compound, how does the “activity, negative = inhibition” value read?
**A.** inactive: -5.52%

**Q.** For `CCc1ccc(NC(=O)CSc2nc(C)c(C(=O)Nc3ccc(Cl)cc3)c(-c3ccc(OC)cc3)c2C#N)cc1`, which Potency is on record?
**A.** inconclusive: 11.2 µM [inhibitor, single point]

**Q.** Which Potency does the source give for `O=C(COc1ccccc1)N1CCOc2ccc(CN3CCc4ccccc4C3)cc2C1` here?
**A.** inconclusive: 10 µM [inhibitor, single point]

**Q.** With `Clc1ccc(-c2cnc([C@@H]3COCCN3Cc3c[nH]c4ccccc34)[nH]2)s1` as the compound, how does the Potency read?
**A.** inconclusive: 2.82 µM [inhibitor, single point]

**Q.** Which Potency does the source give for `Cn1c(=O)oc2cc(S(=O)(=O)N3CCCC(C(=O)NCc4ccccc4Cl)C3)ccc21` (stereo not given) here?
**A.** inconclusive: 17.8 µM [inhibitor, single point]

**Q.** For `CCc1ccccc1S(=O)(=O)N1CCN(C2CCN(Cc3cccnc3)C2=O)CC1` (stereo not given), which Potency is on record?
**A.** inconclusive: 10 µM [inhibitor, partial curve]

**Q.** Which Potency does the source give for `Cc1cccc(C)c1NC(=O)NCCCN1CCN(c2ccccc2)CC1` here?
**A.** inconclusive: 12.6 µM [inhibitor, partial curve, poor fit]

**Q.** Which “activity, negative = inhibition” value does the source give for `O=C(N1CCOCC1)N1CCn2c(nnc2C2CCNCC2)C1` here?
**A.** inactive: 41.6%
